Data reported in the supplement of paper PMC9174493.
The list shows a part of the results. Single values of this set are uncertain. Values with irradiation are relative to irradiated vehicle.

The compounds below were run on A549-Dual (assay: ISRE reporter (Lucia luciferase) activity, viability-corrected, relative to vehicle (fold change vs vehicle); higher = more activation of STING-IRF / NF-kB immune response reporter). Conditions: 10 µM; irradiation: none.

Row | SMILES | ISRE reporter
1 | O=C(Cn1cnnn1)NC1C(=O)N2C(C(=O)[O-])=C(CSc3nncs3)CSC12.[Na+] (stereo not drawn) [Ceftezole sodium] | 0.712
2 | Nc1ccc(O)cc1 [4-Aminophenol] | 0.783
3 | Cl.O=C(O)/C=C/c1ccc(Cn2ccnc2)cc1 [Ozagrel HCl] | 0.834
4 | CCCCC(CC)COC(=O)C=Cc1ccc(OC)cc1 (stereo not drawn) [Octinoxate] | 0.511
5 | NC(CSCCCO)C(=O)O (stereo not drawn) [Fudosteine] | 0.694
6 | CN1C2CCCC1CC(NC(=O)c1nn(C)c3ccccc13)C2 (stereo not drawn) [Granisetron] | 0.813
7 | COc1cc2c(cc1OC)C1Cc3ccc(OC)c(OC)c3CN1CC2.Cl (stereo not drawn) [Tetrahydropalmatine hydrochloride] | 0.953
8 | CC1(C)CC1C(=O)N/C(=C\CCCCSCC(N)C(=O)O)C(=O)O (stereo not drawn) [Cilastatin] | 0.992
9 | C=CCc1ccc(O)c(OC)c1 [Eugenol] | 0.936
10 | CC(CN1CC(=O)NC(=O)C1)N1CC(=O)NC(=O)C1.Cl (stereo not drawn) [Dexrazoxane HCl (ICRF-187, ADR-529)] | 4.78
11 | C/C(=C(\CCOC(=O)C(C)C)SS/C(CCOC(=O)C(C)C)=C(/C)N(C=O)Cc1cnc(C)nc1N)N(C=O)Cc1cnc(C)nc1N [Sulbutiamine] | 0.564
12 | COC(=O)c1ccc2c(c1)NC(=O)/C2=C(\Nc1ccc(N(C)C(=O)CN2CCN(C)CC2)cc1)c1ccccc1 [Nintedanib (BIBF 1120)] | 1.89
13 | Clc1ccc(Cn2c(CN3CCCC3)nc3ccccc32)cc1 [Clemizole] | 0.381
